# “And” between values parts separate entries of the source, which are not always exact repeats. Equal values may be shown once. Where a name gives a salt, the structure may show the parent alone. The list shows a part of the results. Rule as the data show it: active = -2 or less and inactive = the rest. Single values are uncertain, as repeats are few or missing.
# System: hPSC-derived cortical neurons (WA09)
# Assay: nuclei number (viability) z-score; higher = more surviving cells
# Conditions: 5 µM; treatment: days 7-14 after plating, readout day 21
# 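Also: nuclei counted from DAPI counterstain by automated high-content image analysis, four fields per well at ×20 in 384-well plates, with sequential b-score then z-score normalization.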
row,SMILES,nuclei number (z-score)
1,NCCC(O)(P(=O)(O)O)P(=O)(O)O [Pamidronate Disodium],inactive: -0.251
2,Cc1ccc2nc(NCCN)c3ncc(C)n3c2c1,inactive: 0.379
3,Cc1c(NC(=O)OC[C@@H]2COCCN2)cn2ncnc(Nc3ccc4c(cnn4Cc4cccc(F)c4)c3)c12,inactive: 1.56
4,Cc1cn([C@H]2C[C@H](N=[N+]=[N-])[C@@H](CO)O2)c(=O)[nH]c1=O [Zidovudine],inactive: -0.359
5,COc1ccc([C@@H]2Sc3ccccc3N(CCN(C)C)C(=O)[C@@H]2OC(C)=O)cc1 [Diltiazem HCl],inactive: -0.105
6,CC(=O)c1cc([N+](=O)[O-])c(Sc2ccc(F)cc2F)s1,inactive: 0.624
7,NS(=O)(=O)Cc1noc2ccccc12 [Zonisamide],inactive: 0.0716
8,COc1ccc2c(c1)C(=O)N(CCc1ccc(S(=O)(=O)NC(=O)NC3CCCCC3)cc1)C(=O)C2(C)C [Gliquidone],inactive: 0.584
9,C=CCc1ccc(O)c(-c2cc(CC=C)ccc2O)c1 [Magnolol],inactive: 0.922
10,Cc1cnc(-c2cnc(NCCNc3ccc(C#N)cn3)nc2-c2ccc(Cl)cc2Cl)[nH]1,inactive: -0.0385 and inactive: -1.89
11,CCNC(=O)c1noc(-c2cc(C(C)C)c(O)cc2O)c1-c1ccc(CN2CCOCC2)cc1,active: -2.72
12,"CC(=O)C1=C(O)C=C2Oc3c(C(C)=O)c(O)c(C)c(O)c3C2(C)C1=O (single isomer, unassigned; (+)) [(+)-Usniacin]",inactive: -0.0573
13,CNCc1ccc(-c2[nH]c3cc(F)cc4c3c2CCNC4=O)cc1,inactive: -0.15
14,CCCNC(C)C(=O)Nc1c(C)csc1C(=O)OC (stereo not drawn) [Articaine HCl],inactive: 0.431
15,Nc1nc(=O)c2c([nH]1)NC[C@H](CNc1ccc(C(=O)N[C@@H](CCC(=O)O)C(=O)O)cc1)N2C=O [Calcium Levofolinate],active: -2.03
16,COc1ccc(CCc2nc3cc(-c4c(C)noc4C)ccc3n2C[C@H](C)N2CCOCC2)cc1Cl,inactive: 0.104
17,O=C(O)c1cc2cccc([N+](=O)[O-])c2[nH]1,inactive: 0.499
18,CN(C)CCC(c1ccc(Cl)cc1)c1ccccn1 (stereo not drawn) [Chlorpheniramine Maleate],inactive: -0.424
19,OCC(O)CN1CCN(c2ccccc2)CC1 (stereo not drawn) [Dropropizine],inactive: -0.653
20,COc1ccccc1N1CCN(CCN2C(=O)CC3(CCCC3)CC2=O)CC1,inactive: -0.426
21,COc1ccc(-c2coc3cc(O)cc(O)c3c2=O)cc1 [Biochanin A],inactive: 1.16

row,SMILES,nuclei number (z-score)
1,NS(=O)(=O)NCCNc1nonc1/C(=N/O)Nc1ccc(F)c(Br)c1,inactive: 0.983
2,O[C@@H](COc1cccc2ncccc12)CN1CCN(C2c3ccccc3[C@@H]3[C@H](c4ccccc42)C3(F)F)CC1 (stereo partly drawn),inactive: -0.833
3,O=S(=O)(NCCNC/C=C/c1ccc(Br)cc1)c1cccc2cnccc12,inactive: -0.475
4,CCC(=O)NCC[C@@H]1CCc2ccc3c(c21)CCO3 [Ramelteon],inactive: -0.439
5,COC1=CC(=O)C[C@@H](C)[C@]12Oc1c(Cl)c(OC)cc(OC)c1C2=O [Griseofulvin],inactive: 4.87
6,CC(C)(C)c1cc(/C=C(\C#N)C(N)=S)cc(C(C)(C)C)c1O [Tyrphostin AG 879],inactive: -0.0588
7,CC[C@H](Nc1ncnc2[nH]cnc12)c1nc2cccc(F)c2c(=O)n1-c1ccccc1 [CAL-101 (Idelalisib_ GS-1101)],inactive: -0.223
8,CC(C)c1noc(N2CCC(COc3ccc(-c4ccc(S(C)(=O)=O)cc4)nc3)CC2)n1,inactive: 0.337
9,O=C(NC1CCNCC1)c1n[nH]cc1NC(=O)c1c(Cl)cccc1Cl,active: -6.28 and active: -6.54
10,O=CN1CC/C(=C/c2ccc3c(c2)OCO3)C1=O,inactive: 0.148
11,Cc1onc(-c2ccccc2)c1C(=O)N[C@@H]1C(=O)N2[C@@H]1SC(C)(C)[C@@H]2C(=O)O [Oxacillin sodium monohydrate],inactive: -0.238
12,CCCC(CCC)C(=O)O [Valproic acid sodium salt (Sodium valproate)],inactive: 0.0724
13,CCCC(CCC)C(=O)O [Divalproex Sodium],inactive: -0.628
14,CN(C)[C@@H](CCOc1cccc2ccccc12)c1ccccc1 [Dapoxetine HCl],inactive: 0.00662
15,"CO[C@H]1C[C@@H]2CC[C@@H](C)[C@@](O)(O2)C(=O)C(=O)N2CCCC[C@H]2C(=O)O[C@H]([C@H](C)C[C@@H]2CC[C@@H](OP(C)(C)=O)[C@H](OC)C2)CC(=O)[C@H](C)/C=C(\C)[C@@H](O)[C@@H](OC)C(=O)[C@H](C)C[C@H](C)/C=C/C=C/C=C/1C [Ridaforolimus (Deforolimus, MK-8669)]",inactive: -1.57
16,CC(C)(C)NCC(O)c1ccc(O)c(CO)c1 (stereo not drawn) [Salbutamol Sulfate],inactive: 0.637
17,O=S(=O)(N=Cc1c(O)ccc2ccccc12)c1cccs1,inactive: 0.615
18,CCS(=O)(=O)N1CCC([C@@H](C)n2c(C)c(C(=O)NCc3c(OC)cc(C)[nH]c3=O)c3ccccc32)CC1,inactive: -0.0358
19,Fc1ccc(CNc2ncnc3ccc(F)cc23)cc1 [Spautin-1],inactive: -0.312
20,O=C1CCc2c(ccc3ccccc23)O1 [Splitomicin],inactive: 1.69
21,CC[C@@H]1C(=O)N(C)c2cnc(Nc3ccc(C(=O)NC4CCN(C)CC4)cc3OC)nc2N1C1CCCC1,active: -2.26

row,SMILES,nuclei number (z-score)
1,O=C([O-])C(O)[C@H](O)[C@@H](O)[C@H](O)[C@H](O)CO.O=C([O-])C(O)[C@H](O)[C@@H](O)[C@H](O)[C@H](O)CO.[Ca+2] (stereo partly drawn) [Calcium Gluceptate],inactive: -0.0892
2,Cc1c(OCC(F)(F)F)ccnc1C[S+]([O-])c1nc2ccccc2[nH]1 (stereo not drawn) [Lansoprazole],inactive: 1.49
3,CC(=O)O[C@H]1Cc2ccccc2N(C(N)=O)c2ccccc21 [Eslicarbazepine Acetate],inactive: 0.201
4,CCOC(=O)c1ccc(O)cc1 [Ethylparaben],inactive: 2.97
5,COC(=O)Nc1nc2cc(C(=O)c3ccc(F)cc3)ccc2[nH]1 [Flubendazole],inactive: 1.76
6,COc1ccc(COc2cc3oc(=O)c4cc(C(C)O)ccc4c3cc2OC)cc1 (stereo not drawn) [Palomid 529 (P529)],inactive: 0.801
7,NC1=N[C@@]2(c3cc(NC(=O)c4ccc(F)cn4)ccc3F)COC[C@H]2CS1,inactive: 3.53
8,COc1ccc2cc1Oc1ccc(cc1)C[C@H]1c3c(cc4c(c3Oc3cc5c(cc3OC)CCN(C)[C@@H]5C2)OCO4)CCN1C [Cepharanthine],active: -7.22
9,COc1ccccc1OCCNCC(O)COc1cccc2[nH]c3ccccc3c12 (stereo not drawn) [Carvedilol],inactive: -1.28
10,CC(C)c1nc(CN(C)C(=O)N[C@H](C(=O)N[C@@H](Cc2ccccc2)C[C@H](O)[C@H](Cc2ccccc2)NC(=O)OCc2cncs2)C(C)C)cs1 [Ritonavir],inactive: -0.0733
11,COc1ccc(-n2nc(C(N)=O)c3c2C(=O)N(c2ccc(N4CCCCC4=O)cc2)CC3)cc1 [Apixaban],inactive: 0.0209
12,CC(C)CC(NC(=O)C(Cc1ccccc1)NC(=O)C(CCC(N)=O)NC(=O)C(Cc1ccc(O)cc1)NC(=O)C(C)NC(=O)CNC(=O)C(CCCCN)NC(=O)C(Cc1c[nH]c2ccccc12)NC(=O)C(NC(=O)C(Cc1c[nH]c2ccccc12)NC(=O)C(CCCCN)NC(=O)CNC(=O)C(CC(N)=O)NC(=O)C(CCC(=O)O)NC(=O)C(Cc1c[nH]c2ccccc12)NC(=O)C(NC(=O)C(Cc1c[nH]c2ccccc12)NC(=O)C(CO)NC(=O)CNC(=O)C1CCCN1C(=O)C(Cc1c[nH]c2ccccc12)NC(=O)C(CCC(N)=O)NC(=O)C(Cc1ccccc1)NC(=O)CNC(=O)C(N)Cc1c[nH]cn1)C(C)O)C(C)O)C(=O)NC(CCCCN)C(=O)NCC(=O)NCC(=O)NCC(=O)NCC(=O)NC(CO)C(=O)NC(CCCNC(=N)N)C(=O)NC(CCCNC(=N)N)C(=O)NC(CCCNC(=N)N)C(=O)NC(CCCNC(=N)N)C(=O)NC(CCCNC(=N)N)C(=O)NC(CCCNC(=N)N)C(=O)NC(CCCNC(=N)N)C(=O)NC(CCCNC(=N)N)C(=O)NC(CCCNC(=N)N)C(=O)O (stereo not drawn),active: -5.39
13,COc1ccc(C(C)=O)c(O)c1 [Paeonol],inactive: 0.233
14,COc1ccc(CCCOC(Cn2ccnc2)c2ccc(OC)cc2)cc1 (stereo not drawn),inactive: -0.422
15,COc1c(O)cc2c(c1O)[C@@H]1O[C@H](CO)[C@@H](O)[C@H](O)[C@H]1OC2=O [Bergenin],inactive: 0.902
16,Nc1cccc(-c2cc3c(Oc4cccc(O)c4)ncnc3[nH]2)c1,inactive: 0.24
17,CC(C)[C@H]1CC[C@H](C(=O)N[C@H](Cc2ccccc2)C(=O)O)CC1 [Nateglinide],inactive: -0.489
18,CCCCOc1ccc(OCCCN2CCOCC2)cc1 [Pramoxine HCl],inactive: -0.0206
19,C[C@@H](O)[C@H]1C(=O)N2C(C(=O)OCOC(=O)C(C)(C)C)=C(SC3CN(C4=NCCS4)C3)[C@H](C)[C@H]12 [Tebipenem Pivoxil],inactive: 0.0777
20,CC1CCc2cc(F)cc3c(=O)c(C(=O)O)cn1c23 (stereo not drawn) [Flumequine],inactive: 0.264
21,CCCS(=O)(=O)Nc1ccc(F)c(C(=O)c2c[nH]c3ncc(Cl)cc23)c1F,inactive: 1.94

# Reference: the supplement of paper PMC11348887
